According to PubChem BioAssay AID493208 (National Center for Advancing Translational Sciences (NCATS), 2011):
In all, about 44,000 compounds went through this assay and about 340 (0.77%) were called active. About 5% were inconclusive and are not listed. Calls follow the shape of the dose curve; as a rule, active = well fitted inhibition curve with a large enough effect; inconclusive = small, poorly fitted or top-dose-only effect; inactive = flat fitted curve, though single readings scatter. The list shows a part of the results.

assay: Acumen qHTS Assay for Inhibitors of the mTORC1 Signaling Pathway in MEF (Tsc2-/-, p53-/-) Cells: Sytravon; conditions: phospho-rpS6 immunofluorescence/PI, 24 h; series mostly up to 38.3 µM; activity change, negative = inhibition: at the top concentration;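 also: plate controls were DMSO for no effect and rapamycin for full effect; nearly all actives have a fitted effect of over 50% in size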
Summary of the method: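 Readout is phospho-S6 Alexa 488 signal normalized to PI per well, reported as % active cells with thresholds set from rapamycin (7.5 nM) and DMSO controls. Cells: Tsc2-/-, p53-/- MEFs, 24 hrs compound at 37 C; PI cell number serves as viability.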

Activity change, negative = inhibition, inactive:
Cc1ccc2nc(NC(=O)c3cc(=O)c4cc(Cl)ccc4o3)sc2c1 4.38%
Cn1c(Oc2ccc(F)cc2)nc2c1c(=O)n(Cc1ccccc1Cl)c(=O)n2C -24.4%
O=C(NCCc1ccc(Cl)cc1)c1ccc(CS(=O)(=O)Cc2ccccc2F)o1 -1.28%
CC(=O)N1CCc2c(sc3c2c(=O)n(-c2ccc(C)cc2)c(=O)n3CC(=O)Nc2ccccc2)C1 -10.6%
COc1ccccc1NC(=O)c1c(NC(=O)c2ccccc2F)sc2c1CCC2 4.56%
COc1ccc(Cn2ccc3nc(C)c(C(=O)Nc4ccc(C)c(F)c4)cc3c2=O)cc1 -4.87%
Cc1ccc(-c2cc(C(=O)NCc3ccccc3)c3c(-c4ccc(C)cc4)[nH]nc3n2)cc1 8.18%
COC(=O)c1c(NC(=O)c2ccccc2C(=O)O)sc2c1CCCC2 4.16%
CCSc1nc2c(c(=O)[nH]c(=O)n2C)n1CC(O)COc1ccc(Cl)cc1 (centres undefined) -6.91%
COc1ccc(N2CCN(C(=O)c3ccc4c(c3)CCN4S(C)(=O)=O)CC2)cc1 -2.13%
Cc1c(Cl)cccc1NC(=O)Cn1nc(C)c2sc3ccccc3c2c1=O -0.377%
Cc1ccc(C)c(S(=O)(=O)c2nnn3c2nc(Nc2ccc(F)c(Cl)c2)c2sccc23)c1 0.316%
Cc1nc(SCC(=O)Nc2ccc(Br)cc2)[nH]c(=O)c1Cc1ccccc1 2.61%
Cc1ccc2c(c1)N(C(=O)N1CCC(C(=O)NCc3ccco3)CC1)CC(C)O2 (centres undefined) 6.32%
Cc1ccc(S(=O)(=O)CCC(=O)N2CCN(c3nc4c(C)c(Cl)ccc4s3)CC2)cc1 -8.59%
CCc1ccc(OCC(=O)NCc2nc(-c3cccc(C)c3)no2)c(Br)c1 -5.14%
COc1cc(C(=O)N2CCc3c([nH]c4ccccc34)C2c2ccccc2)cc(OC)c1OC (centres undefined) 0.841%
CC(=O)N1CCC2(CC1)OC(=O)C(C)=C2C(=O)Nc1ccccc1C(F)(F)F -12.8%
CCOC(=O)C1CCN(C(=O)Cn2ncc3c([nH]c4ccc(C)cc43)c2=O)CC1 2.99%
Cc1cccc(N(CC(=O)NCCSc2ccc(Cl)cc2)S(=O)(=O)c2ccccc2)c1C -18.5%
COc1ccccc1OCCn1c(-c2ccc(Br)cc2)nc2ccccc2c1=O 2.12%
CSc1ncc(C(=O)N2CCN(c3ccc(F)cc3)CC2)c(C)n1 2.31%
COc1cccc(-c2nn(C)c3sc(C(=O)N4CCN(c5cccc(C)c5)C(C)C4)cc23)c1 (centres undefined) 0.468%
COc1ccccc1CCNC(=O)Cn1ccc2cc(S(=O)(=O)N3CCCCCC3)ccc21 -14.4%
CCc1nnc(SCc2nc(-c3ccc(OC)cc3)oc2C)c2cc3sccc3n12 2.21%
Cc1ccc(C)c(N2CCN(C(=O)c3cc(S(=O)(=O)N4CCCC4)cn3C)CC2)c1 11.3%
CCOC(=O)C1CCC(CN(Cc2c(Cl)cccc2Cl)S(=O)(=O)c2ccc(F)cc2)CC1 (centres undefined) 6.02%
Cc1sc2c(c1C)c(=O)n(-c1cccc(C(F)(F)F)c1)c(=O)n2Cc1ccccc1C#N -0.44%
Cc1ccccc1NC(=O)CN1C(=O)CCn2nc(-c3cccn3C)cc21 -0.562%
Cc1ccccc1-c1noc(CSc2nnc(-c3ccncc3)n2-c2ccc(F)cc2)n1 -4.81%
Cc1ccc(OCCCCn2c(CCNC(=O)C(C)(C)C)nc3ccccc32)cc1 5.41%
CCCCn1c(-c2ccc(C)cc2)c(C)n2c3c(=O)n(C)c(=O)n(C)c3nc12 -2.88%
Cc1ncc(CO)c2c1Oc1nc(-c3ccccc3)nc(SCC(=O)Nc3cccc(C(F)(F)F)c3)c1C2 -5.72%
CCOc1ccc(N(CC)C(=O)CSc2n[nH]c(-c3ccccc3)n2)cc1 1.48%
CCn1cc(C(=O)NCc2ccccc2Cl)c(=O)c2cc(S(=O)(=O)N3CCCCC3)ccc21 -1.77%
O=C(Cc1ccccc1)Nc1cccc(-c2nc3cccnc3s2)c1 -7.12%
O=C(NC1CCCC1)c1ccc2c(c1)N(Cc1ccccc1F)C(=O)c1ccccc1S2 0.956%
COc1ccc(-c2coc3c2c(C)cc2oc(=O)cc(C)c23)cc1 5.21%
Cc1oc(-c2ccc(C(=O)NCc3ccccc3)cc2)nc1CS(=O)(=O)c1ccccc1 -3.04%
COc1ccc(CCN2C(=O)N(c3ccc(F)cc3)C(=O)C2CC(=O)Nc2ccc(F)c(F)c2)cc1 (centres undefined) -1.71%
CCOc1ccc(N(CC(=O)NCc2ccc(Cl)cc2)S(=O)(=O)c2c(C)noc2C)cc1 6.53%
COCCCNC(=O)C1CCC(Cn2c(=O)c3sccc3n(Cc3ccc(F)cc3)c2=O)CC1 (centres undefined) -0.46%
Cc1c(NC(=O)c2ccc(N3CCC(C)CC3)c([N+](=O)[O-])c2)cccc1-c1nc2ccccc2o1 -0.634%
Cc1ccc(C(=O)Nc2ccc(OCc3cc(=O)n4c5c(sc4n3)CCCC5)cc2)cc1 -1.44%
Cc1cccc(N2CCN(C(=O)c3oc(=O)c4ccccc4c3-c3ccccc3)CC2)c1C -11.2%
Cc1cc(C)cc(NC(=O)c2sc3nc(-c4cc5ccccc5oc4=O)[nH]c(=O)c3c2C)c1 5.3%
COC(=O)c1c(C)sc(-c2c(-c3cccc(Cl)c3)[nH]c3c2c(=O)[nH]c(=O)n3C)c1O -4.4%
COc1ccc(CCNC(=O)CCc2c(C)nc3c(c(C)nn3-c3ccccc3)c2C)c(OC)c1 -6.15%
CCc1cccc(C)c1NC(=O)C(C)Sc1nc2c(c(=O)[nH]1)CCCC2 (centres undefined) 0%
COc1ccccc1C(=O)Nc1nnc(SCc2cc(=O)n3ccc(C)cc3n2)s1 -6.59%
Cc1ccc(OCc2ccc(-c3nc(C#N)c(N4CCC(C)CC4)o3)o2)cc1 1.93%
COc1ccc(-c2noc(N3CCN(c4cccc(C)c4C)CC3)n2)cc1OC 0.136%
CCCNC(=O)CCC(=O)N1Cc2ccccc2Oc2ncccc21 -14.7%
CCc1ccccc1NC(=O)C1CCN(C2=NS(=O)(=O)C(c3ccc(C)c(C)c3)=C2C)CC1 0.529%
COc1ccc(C(=O)CN2C(=O)N(c3cc(C)ccc3C)S(=O)(=O)c3ccccc32)cc1 -2.13%
CCOC(=O)c1c(C)oc2nc(C)nc(NC(C)c3ccccc3)c12 (centres undefined) 6.93%
CC1=C(C(=O)OCc2ccc(C)cc2)C(c2ccccc2Cl)CC(=O)N1 (centres undefined) -5.12%
Cc1cccc(OCC(=O)Nc2ccc3c(c2)nc(CCNC(=O)c2ccco2)n3C)c1 0%
Cc1nc2c3ccccc3nc(NNC(=O)CCC(=O)N3CCN(c4ccccc4)CC3)n2n1 -4.56%
COc1ccc(Br)cc1CNC(=O)c1ccc2c(c1)nc1n2CCCCC1 -0.0609%
Cc1cccc(CN2C(=O)c3ccccc3S(=O)(=O)c3ccc(C(=O)N4CCN(c5cc(C)ccc5C)CC4)cc32)c1 -6.03%
COc1cccc(C(=O)n2nc(-c3ccco3)nc2NCc2cccs2)c1 7.46%
CCc1ccc(-c2cc3c(N4CCN(c5ccccc5)CC4)nccn3n2)cc1 -2.16%
Cc1cccc(-c2nc3nc(C)cc(N4CCN(c5ccccc5)CC4)n3n2)c1 0.0994%
COc1ccc(N2CCN(C(=O)CCn3cnc4onc(-c5ccc(F)cc5)c4c3=O)CC2)cc1 -19.9%
COc1ccc(NC(=O)N2CCN(c3cc(-c4noc(C)n4)ccc3C)CC2)c(OC)c1 1.77%
CC(C)(C)C1CCc2c(sc(NC(=O)c3ccncc3)c2C(=O)Nc2ccccc2Cl)C1 (centres undefined) -0.918%
COc1cccc(N2CCN(Cc3nnc(-c4ccc5c(c4)OCO5)o3)CC2)c1 -2.07%
COc1ccc(N(CC(=O)NCc2ccc(C)cc2)S(=O)(=O)c2c(C)[nH]c(=O)[nH]c2=O)cc1 -7.03%
Cc1cc(C)cc(N2CCn3c2nc2c3c(=O)n(CCc3ccccc3)c(=O)n2C)c1 3.14%
Cc1ccc(-c2nc3c4ccccc4n(Cc4cccc(Cl)c4)c(=O)n3n2)cc1 1.06%
CCN1CCN(CCCNC(=O)Cn2nc(C)n3c(cc4cc(C)ccc43)c2=O)CC1 -4.52%
CCOC(=O)Cc1ccc(NC(=O)N2CC(CC)Oc3ccccc32)cc1 (centres undefined) 8.66%
CCc1ccc(S(=O)(=O)c2nnn3c2nc(N2CCCC(C)C2)c2cc(Cl)ccc23)cc1 (centres undefined) 0.312%
COc1ccc2nc(N3CCN(C(=O)c4ccco4)CC3)sc2c1 -1.24%
COc1ccc(OC)c(CNC(=O)C2COc3ccccc3C2)c1 (centres undefined) -0.976%
Cc1nc2ccccc2n1CCc1nc2c3ccccc3nc(SCC(=O)Nc3ccc(C(C)C)cc3)n2n1 -5.8%
O=C(Nc1nonc1-c1ccc(Br)cc1)c1ccco1 -0.648%
Cc1ccc(NC(=O)CSc2[nH]c(=O)ncc2C)cc1 3.28%
COc1cccc(Cn2cc(S(=O)(=O)c3ccc(C)cc3)c(=O)c3cc4c(cc32)OCO4)c1 0.425%
Cc1ccc(NC(=O)Cc2ccc(NC(=O)N3CCCCc4ccccc43)cc2)cc1 -10.7%
Clc1ccc(CSc2nc3ncccc3[nH]2)cc1 -7.07%
CCN1CCN(C(c2ccccc2)c2c(O)cc(C)n(CCOC)c2=O)CC1 (centres undefined) 4.14%
CSc1cccc(NC(=O)Cn2nnc(C(=O)NCCc3ccccc3)c2N)c1 -17.6%
CCCCC(=O)Nc1ccc(C(=O)OCc2cc(=O)n3nc(C4CC4)sc3n2)cc1 14.3%
COC(=O)C1=C(c2ccccc2)c2ccccc2S(=O)(=O)N1CC(=O)Nc1ccccc1C(F)(F)F -15.2%
COc1ccc(S(=O)(=O)Cc2ccc(C(=O)NC3CCCCC3)o2)cc1 -1.46%
Cn1c(=O)n(CCc2ccccc2)c(=O)c2c1nc1n2CCN1c1ccc(Cl)cc1 6.41%
Cc1cccc(N2CCN(c3ccc(C(=O)O)cc3NC(=O)c3ccccc3F)CC2C)c1 (centres undefined) -8.69%
CC(C(=O)Nc1ccccc1C(F)(F)F)n1nc(-c2ccccc2)c2c(c1=O)CCCC2 (centres undefined) -13.3%
CC(=O)c1ccc(N2CCN(C(=O)Nc3cccc(F)c3)CC2)cc1 -14.6%
CCN(CC)c1ccc(C(=O)NCc2ccc3c(c2)CCN3C(C)=O)cc1 -0.237%
Cc1cc(C)c2c(-n3cccc3)c(C(=O)NCCc3ccccc3)sc2n1 0%
CC(C)CC(=O)Nc1c(C(=O)N2CCN(c3ccccc3F)CC2)oc2ccccc12 -0.325%
